# Some of the results follow.
# Legend:
# HSkMC = human skeletal muscle cells; test: cytotoxicity call (relative viability < 0.9); details: 10 µM
# HepG2 = test: cytotoxicity call (relative viability < 0.9); details: 10 µM
# S. aureus RN4220 = test: growth inhibition call (relative growth <= 0.2); details: 50 µM
SMILES,cytotoxicity call (HSkMC),cytotoxicity call (HepG2),growth inhibition call (S. aureus RN4220)
CCS(=O)(=O)Nc1ccc2c(c1)C(=O)N(C)C[C@@H](OC)[C@H](C)CN(C(=O)c1ccc3c(c1)OCO3)[C@H](C)CO2,inactive,inactive,inactive
CCN(CC)C(=O)N1CCN(C)CC1.O=C(O)CC(O)(CC(=O)O)C(=O)O,inactive,inactive,inactive
Cc1ccc(S(=O)(=O)Nc2ccc3c(c2)C(=O)N([C@H](C)CO)C[C@@H](C)[C@H](CN(C)C(=O)c2ccccc2)OCCCC[C@@H](C)O3)cc1,inactive,inactive,inactive
C[C@@H]1CN([C@@H](C)CO)C(=O)CCCn2cc(nn2)CO[C@H]1CN(C)S(=O)(=O)c1cccc(C#N)c1,inactive,inactive,inactive
CC(C)CN1CCN[C@@H](C)C1=O,inactive,inactive,inactive
Cc1noc(C)c1S(=O)(=O)Nc1ccc2c(c1)CC(=O)N([C@H](C)CO)C[C@H](C)[C@H](CN(C)S(=O)(=O)c1cn(C)cn1)O2,inactive,inactive,inactive
Nc1ccc2cc3ccc(N)cc3nc2c1.O=S(=O)(O)O,active,active,inactive
O=C(C[C@@H]1CC[C@@H]2[C@H](COC[C@@H](O)CN2S(=O)(=O)c2ccccc2)O1)N[C@@H]1CCN(Cc2ccccc2)C1,inactive,inactive,inactive
COc1ccc(S(=O)(=O)Nc2ccc3c(c2)CC(=O)N([C@H](C)CO)C[C@@H](C)[C@@H](CN(C)C(=O)NC(C)C)O3)cc1,inactive,inactive,inactive
CC[C@@H]1OC(=O)[C@H](C)[C@@H](O[C@H]2C[C@@](C)(OC)[C@@H](O)[C@H](C)O2)[C@H](C)[C@@H](O[C@@H]2O[C@H](C)C[C@H](N(C)C)[C@H]2O)[C@](C)(O)C[C@@H](C)/C(=N\OCOCCOC)[C@H](C)[C@@H](O)[C@]1(C)O,inactive,inactive,active
CN1CCN(C(=O)C[C@H]2CC[C@@H]3[C@H](COc4ccc(NC(=O)c5cccs5)cc4C(=O)N3C)O2)CC1,inactive,inactive,inactive
Oc1ccc([C@H]2Oc3cc(O[C@@H]4OC[C@H](O)[C@@H](O)[C@@H]4O)cc(O)c3C[C@@H]2O)cc1O,inactive,inactive,inactive
CN1CCCN=C1COC(=O)C(O)(c1ccccc1)C1CCCCC1.Cl (stereo not given),inactive,inactive,inactive
Cc1noc(C)c1S(=O)(=O)Nc1ccc2c(c1)CC(=O)N([C@H](C)CO)C[C@H](C)[C@@H](CN(C)C(=O)NC(C)C)O2,inactive,inactive,inactive
C[C@@H]1CN([C@@H](C)CO)C(=O)c2cccc(NC(=O)c3cnccn3)c2O[C@H]1CN(C)C(=O)Nc1ccc(F)cc1,inactive,inactive,inactive
C[C@@H]1CCCCO[C@H](CN(C)C(=O)C2CCCCC2)[C@H](C)CN([C@H](C)CO)C(=O)c2cc(NC(=O)Nc3ccccc3)ccc2O1,inactive,inactive,inactive
C[C@H]1CN([C@@H](C)CO)C(=O)Cc2cc(NC(=O)C3CCCCC3)ccc2O[C@H]1CN(C)Cc1ccc(Oc2ccccc2)cc1,active,active,inactive
NC(=O)c1ncn([C@@H]2O[C@H](CO)[C@@H](O)[C@H]2O)c1N,inactive,inactive,inactive
COc1cccc(NC(=O)N(C)C[C@@H]2Oc3ncc(C#Cc4ccncc4)cc3C(=O)N([C@@H](C)CO)C[C@H]2C)c1,inactive,inactive,inactive
COC(=O)C[C@H]1CC[C@H]2[C@@H](COc3ccc(NS(=O)(=O)c4ccccc4Cl)cc3C(=O)N2C)O1,inactive,inactive,inactive
COc1ccc2c3c(n(c2c1)C)[C@H](CO)N(Cc1ccccc1Cl)C[C@]13CCN(CC1)C(=O)CC1CC1,inactive,inactive,inactive
COc1ccccc1CNC(=O)C[C@@H]1C[C@H]2c3cc(NC(=O)c4cccnc4)ccc3O[C@H]2[C@H](CO)O1,inactive,inactive,inactive
C[C@@H]1CN([C@@H](C)CO)C(=O)c2cc(NC(=O)Nc3ccccc3)ccc2O[C@@H](C)CCCCO[C@@H]1CN(C)Cc1ccc2c(c1)OCO2,inactive,active,inactive
C[C@@]12CC[C@@H]3c4ccc(O)cc4C[C@H](CCCCCCCCC[S@@](=O)CCCC(F)(F)C(F)(F)F)[C@@H]3[C@@H]1CC[C@@H]2O,inactive,inactive,inactive
C[C@H](CO)N1C[C@H](C)[C@@H](CN(C)Cc2ccc(-c3ccccc3)cc2)Oc2ccc(NC(=O)Cn3cnnn3)cc2CC1=O,inactive,inactive,inactive

# Reference: the antibiotic and cytotoxicity screens of Wong et al. (2023)
